About 14,000 (4.5%) of roughly 310,000 compounds showed an effect of 50% or more. The effect is printed as a negative number. This is one part of the list.
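Also: peak tail current of the secondary pulse compared with the same well before compound.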

For this assay, the target named is human ether-à-go-go-related gene (hERG) potassium channel (human, UniProt Q12809). The experiment in a line: primary screen, population patch clamp on CHO cells stably expressing hERG.
human ether-à-go-go-related gene (hERG) potassium channel, sequence (Q12809 whole entry, looked up): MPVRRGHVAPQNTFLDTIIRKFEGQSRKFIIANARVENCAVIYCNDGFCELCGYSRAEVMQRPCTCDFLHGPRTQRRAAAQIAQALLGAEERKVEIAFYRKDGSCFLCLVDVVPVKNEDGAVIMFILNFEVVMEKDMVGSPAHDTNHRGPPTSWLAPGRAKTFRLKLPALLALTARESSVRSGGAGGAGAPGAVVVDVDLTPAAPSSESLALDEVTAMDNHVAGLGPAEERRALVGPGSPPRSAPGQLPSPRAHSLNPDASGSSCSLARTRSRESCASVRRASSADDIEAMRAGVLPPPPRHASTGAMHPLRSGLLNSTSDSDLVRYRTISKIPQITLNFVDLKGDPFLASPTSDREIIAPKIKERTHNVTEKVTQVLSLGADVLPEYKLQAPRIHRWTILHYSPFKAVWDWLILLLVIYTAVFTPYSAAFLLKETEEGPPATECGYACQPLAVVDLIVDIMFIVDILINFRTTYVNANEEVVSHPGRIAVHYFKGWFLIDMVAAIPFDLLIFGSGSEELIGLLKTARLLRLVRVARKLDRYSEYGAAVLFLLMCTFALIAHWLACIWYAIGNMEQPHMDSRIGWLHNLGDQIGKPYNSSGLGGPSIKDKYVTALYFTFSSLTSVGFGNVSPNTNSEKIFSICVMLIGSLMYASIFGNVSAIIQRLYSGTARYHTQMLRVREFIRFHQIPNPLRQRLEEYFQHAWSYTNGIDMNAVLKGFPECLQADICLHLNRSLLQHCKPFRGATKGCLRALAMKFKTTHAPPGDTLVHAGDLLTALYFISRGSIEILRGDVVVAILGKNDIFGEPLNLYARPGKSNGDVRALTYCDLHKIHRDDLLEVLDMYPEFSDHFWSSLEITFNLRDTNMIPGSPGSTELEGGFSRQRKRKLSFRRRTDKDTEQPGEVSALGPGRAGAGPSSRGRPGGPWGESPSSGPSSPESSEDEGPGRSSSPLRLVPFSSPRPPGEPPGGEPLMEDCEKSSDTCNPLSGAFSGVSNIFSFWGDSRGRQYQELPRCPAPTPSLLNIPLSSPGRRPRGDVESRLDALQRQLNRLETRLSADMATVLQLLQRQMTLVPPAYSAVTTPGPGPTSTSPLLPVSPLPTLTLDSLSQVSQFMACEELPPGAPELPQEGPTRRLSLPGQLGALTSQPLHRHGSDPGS
In the case of `CC(=O)NNC(=O)N1Cc2ccccc2Oc2ccc(Cl)cc21`, the “hERG current change (%, negative = inhibition) at 10uM” value worked out at 7.95%.

Take `CN1CCN(c2nc(-c3cccs3)nc3ccccc23)CC1`: the “hERG current change (%, negative = inhibition) at 10uM” value is -73.9%.

With `c1cc2cc(-c3c(-c4ccc5c(c4)OCO5)noc3-c3ccsc3)ccc2[nH]1`, the “hERG current change (%, negative = inhibition) at 10uM” value was found to be 19.4%.

As to `Cc1ccc2cc(CN(c3ccc(C)c(C)c3)S(C)(=O)=O)c(=O)[nH]c2c1`, the “hERG current change (%, negative = inhibition) at 10uM” value worked out at 26.7%.

For `COc1ccc(C(C)=O)cc1CSCC(=O)O`, the “hERG current change (%, negative = inhibition) at 10uM” value was determined as 24.8%.

For `COc1ccc(CCC(=O)Nc2cc3c4c(c2)CCC(=O)N4CCC3)cc1`, the “hERG current change (%, negative = inhibition) at 10uM” value was -10.3%.

Take `CCSc1nnc(N2C(=O)CC(c3ccsc3)C3=C2CC(C)(C)CC3=O)s1` (centres unmarked): the “hERG current change (%, negative = inhibition) at 10uM” value is on record as -6.24%.

`CCCCOC(=O)Cn1c(=O)n(CC(=O)OCCCC)c2ccccc21`: the “hERG current change (%, negative = inhibition) at 10uM” value is -33.9%.

With `C/C(CCC(C)C)=N\NC(=S)Nc1cc(S(=O)(=O)N2CCOCC2)ccc1N1CCOCC1`, the “hERG current change (%, negative = inhibition) at 10uM” value is recorded as -18.5%.

For `O=Cc1cccnc1SCc1ccccc1`, the “hERG current change (%, negative = inhibition) at 10uM” value is 6.97%.

For the compound `Cc1ccc(NC(=O)NCc2ccc3c(c2)OCO3)c(C)c1`, the “hERG current change (%, negative = inhibition) at 10uM” value is recorded as 6.35%.

On to `C=C(C)c1cccc(C(C)(C)NC(=O)Nn2cnnc2)c1`, for which the “hERG current change (%, negative = inhibition) at 10uM” value is on record as 8.95%.

Regarding `Cc1ccc(C(=O)Nc2ccc(OCc3ccccc3)cc2)s1`, the “hERG current change (%, negative = inhibition) at 10uM” value was 1.58%.

With `CCOc1ccc(C(C)NC(=O)Nc2ccc(F)cc2F)cc1` (centres unmarked), the “hERG current change (%, negative = inhibition) at 10uM” value was -0.408%.

Take `CCN(CC)CCNC(=O)CNC(=O)c1nn(-c2ccc(OC)cc2)c(=O)c2ccccc12`: the “hERG current change (%, negative = inhibition) at 10uM” value turned out to be 1.57%.

As to `COc1cc(NC(=O)c2ccc(COc3ccccc3Br)o2)cc(OC)c1OC`, the “hERG current change (%, negative = inhibition) at 10uM” value was -3.81%.

Consider `COc1ccc(C(=O)Nc2ccc3nc(N4CCN(C)CC4)cc(C)c3c2)c(OC)c1`, for which the “hERG current change (%, negative = inhibition) at 10uM” value is -0.388%.

As to `COc1ccc2c(c1)c(C(=O)CN1CCN(C(=O)c3ccco3)CC1)c(C)n2C`, the “hERG current change (%, negative = inhibition) at 10uM” value came out at 8.19%.

Turning to `Cc1ccc(C)c(NS(=O)(=O)c2cc(C(N)=O)ccc2C)c1`, the “hERG current change (%, negative = inhibition) at 10uM” value is given as -4.37%.

With `O=C(NC[C@@H]1CCCO1)c1cccc2c1C(=O)c1ccc(Cl)cc1S2(=O)=O`, the “hERG current change (%, negative = inhibition) at 10uM” value is listed as -16.2%.

Take `CCOc1cc(/C=N/NC(=O)Cc2ccc(C(F)(F)F)cc2[N+](=O)[O-])c(Br)cc1OC`: the “hERG current change (%, negative = inhibition) at 10uM” value is recorded as 8.3%.

In the case of `O=[N+]([O-])c1cc(/C=N/NC(=S)Nc2ccccc2Cl)ccc1Cl`, the “hERG current change (%, negative = inhibition) at 10uM” value is recorded as 35.6%.

With `N#C/C(=C\c1ccc(/C=C(/C#N)c2nn(CCO)c(N)c2C#N)cc1)c1nn(CCO)c(N)c1C#N`, the “hERG current change (%, negative = inhibition) at 10uM” value was 11.7%.

For the compound `C/[N+]([O-])=C\CC(=O)c1ccc(-c2ccccc2)cc1`, the “hERG current change (%, negative = inhibition) at 10uM” value is given as 15%.

Regarding `O=[N+]([O-])c1ccn(-c2nc(-c3cccs3)cc(C(F)(F)F)n2)n1`, the “hERG current change (%, negative = inhibition) at 10uM” value came to 2.54%.

Take `CN1C(=O)c2ccc(C(=O)NCc3ccco3)cc2C1=O`: the “hERG current change (%, negative = inhibition) at 10uM” value stood at 13.2%.

As for `O=C1CN(C(=O)c2cc(Br)c(Br)s2)c2ccccc2N1`, the “hERG current change (%, negative = inhibition) at 10uM” value amounted to 13%.

`CC1CC(C)CN(C(=O)Cn2c(=O)oc3cc(S(=O)(=O)N4CCCC4)ccc32)C1` (centres unmarked): the “hERG current change (%, negative = inhibition) at 10uM” value is -3.39%.

Consider `COc1ccc(NC(=O)COC(=O)CC23CC4CC(CC(C4)C2)C3)c([N+](=O)[O-])c1`, for which the “hERG current change (%, negative = inhibition) at 10uM” value was 15.7%.

As to `Cc1onc(C(=O)NCc2ccc(F)cc2)c1[N+](=O)[O-]`, the “hERG current change (%, negative = inhibition) at 10uM” value is recorded as -1.77%.

As to `O=C(NCc1ccccc1)C1=C[C@@H](c2ccc(Br)cc2)C[C@@H](OCc2ccc(CO)cc2)O1`, the “hERG current change (%, negative = inhibition) at 10uM” value is -9.5%.

`CCN1CCN(c2oc(/C=C/c3ccccc3)nc2C#N)CC1`: the “hERG current change (%, negative = inhibition) at 10uM” value is recorded as -63.1%.

As to `Cc1ccc(-c2noc(Cn3cc(S(=O)(=O)N4CCCC4)ccc3=O)n2)cc1`, the “hERG current change (%, negative = inhibition) at 10uM” value worked out at 8.62%.

For the compound `COC(=O)c1ccc(NC(=O)C2CC(=O)OC2c2ccccc2)cc1` (centres unmarked), the “hERG current change (%, negative = inhibition) at 10uM” value is listed as 5.94%.

As for `O=C(CCCOc1ccccc1)NC1CCCc2ccccc21` (centres unmarked), the “hERG current change (%, negative = inhibition) at 10uM” value is listed as -13.1%.

As to `O=C(C1CCC1)N1CCCc2cc(S(=O)(=O)N3CCN(c4ccccc4)CC3)ccc21`, the “hERG current change (%, negative = inhibition) at 10uM” value is -0.703%.

For `CCCNC(=O)C1(CC2CC(c3ccccc3)=NO2)CCN(C(=O)C2CCCC2)CC1` (centres unmarked), the “hERG current change (%, negative = inhibition) at 10uM” value is recorded as -41.8%.

Turning to `Cc1ccccc1NC(=O)Cn1c(=O)n(C)c2ccccc21`, the “hERG current change (%, negative = inhibition) at 10uM” value is reported as -8.49%.

Turning to `CC(C)Cc1nnc(NC(=O)Cc2ccc([N+](=O)[O-])cc2)s1`, the “hERG current change (%, negative = inhibition) at 10uM” value was found to be 0.955%.

`OCc1nc2ccccc2n1CC(O)COc1ccccc1` (centres unmarked): the “hERG current change (%, negative = inhibition) at 10uM” value was 6.25%.

Turning to `COc1ccc(-c2nc(CS(=O)CC(=O)NC3CCCCCC3)c(C)o2)cc1` (centres unmarked), the “hERG current change (%, negative = inhibition) at 10uM” value is reported as 10.6%.

As to `O=C(Nc1ccc2c(c1)OCCO2)c1cccnc1Oc1ccc(Cl)cc1`, the “hERG current change (%, negative = inhibition) at 10uM” value turned out to be 7.21%.

As for `CN1CCCC(OC(=O)CCCCC(=O)OC2CCCN(C)C2)C1.Cl` (centres unmarked), the “hERG current change (%, negative = inhibition) at 10uM” value is given as 2.04%.

In the case of `Cc1ccc2c(c1)N(CC(=O)NCCCc1ccccc1)C(=O)c1cccnc1O2`, the “hERG current change (%, negative = inhibition) at 10uM” value is reported as -17.4%.
